{
  "source": "the supplement of paper PMC8728848",
  "test_in_all_cases": "glycan array binding signal (z-score within array); higher = stronger binding",
  "settings_in_all_cases": "glycan notation: IUPAC condensed, linker removed; mutation: R82H, R255H",
  "key": {"[1]": {"target": "Gal(b1-4)GlcNAc(b1-3)Gal(b1-3)GlcNAc", "method_in_brief": "(§1)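 Negative Z-scores can be read as non-binding. The Z-score is calculated within each array and then averaged across arrays of one protein sequence at different concentrations or buffers and across linkers. Arrays, 3228 in all, were curated from the Consortium for Functional Glycomics database and kept only where the protein sequence was available.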"}, "[2]": {"target": "Gal(b1-4)GlcNAc(b1-3)Gal(b1-4)Glc", "method_in_brief": "as §1"}, "[3]": {"target": "Gal(b1-4)GlcNAc(b1-3)Gal(b1-4)GlcNAc", "method_in_brief": "as §1"}, "[4]": {"target": "Gal(b1-4)GlcNAc(b1-3)Gal(b1-4)GlcNAc(b1-2)Man(a1-3)[Gal(b1-4)GlcNAc(b1-3)Gal(b1-4)GlcNAc(b1-2)Man(a1-6)]Man(b1-4)GlcNAc(b1-4)GlcNAc", "method_in_brief": "as §1"}, "[5]": {"target": "Gal(b1-4)GlcNAc(b1-3)Gal(b1-4)GlcNAc(b1-2)Man(a1-3)[Gal(b1-4)GlcNAc(b1-3)Gal(b1-4)GlcNAc(b1-2)Man(a1-6)]Man(b1-4)GlcNAc(b1-4)[Fuc(a1-6)]GlcNAc", "method_in_brief": "as §1"}, "[6]": {"target": "Gal(b1-4)GlcNAc(b1-3)Gal(b1-4)GlcNAc(b1-2)[Gal(b1-4)GlcNAc(b1-3)Gal(b1-4)GlcNAc(b1-6)]Man(a1-6)[Gal(b1-4)GlcNAc(b1-3)Gal(b1-4)GlcNAc(b1-2)Man(a1-3)]Man(b1-4)GlcNAc(b1-4)GlcNAc", "method_in_brief": "as §1"}, "[7]": {"target": "Gal(b1-4)GlcNAc(b1-3)Gal(b1-4)GlcNAc(b1-2)[Gal(b1-4)GlcNAc(b1-3)Gal(b1-4)GlcNAc(b1-6)]Man(a1-6)[Gal(b1-4)GlcNAc(b1-3)Gal(b1-4)GlcNAc(b1-2)Man(a1-3)]Man(b1-4)GlcNAc(b1-4)[Fuc(a1-6)]GlcNAc", "method_in_brief": "as §1"}, "[8]": {"target": "Gal(b1-4)GlcNAc(b1-3)Gal(b1-4)GlcNAc(b1-3)Gal(b1-4)GlcNAc", "method_in_brief": "as §1"}, "[9]": {"target": "Gal(b1-4)GlcNAc(b1-3)Gal(b1-4)GlcNAc(b1-3)Gal(b1-4)GlcNAc(b1-2)Man(a1-3)[Gal(b1-4)GlcNAc(b1-3)Gal(b1-4)GlcNAc(b1-3)Gal(b1-4)GlcNAc(b1-2)Man(a1-6)]Man(b1-4)GlcNAc(b1-4)GlcNAc", "method_in_brief": "as §1"}, "[10]": {"target": "Gal(b1-4)GlcNAc(b1-3)Gal(b1-4)GlcNAc(b1-3)Gal(b1-4)GlcNAc(b1-2)Man(a1-3)[Gal(b1-4)GlcNAc(b1-3)Gal(b1-4)GlcNAc(b1-3)Gal(b1-4)GlcNAc(b1-2)Man(a1-6)]Man(b1-4)GlcNAc(b1-4)[Fuc(a1-6)]GlcNAc", "method_in_brief": "as §1"}, "[11]": {"target": "Gal(b1-4)GlcNAc(b1-3)Gal(b1-4)GlcNAc(b1-3)Gal(b1-4)GlcNAc(b1-2)[Gal(b1-4)GlcNAc(b1-3)Gal(b1-4)GlcNAc(b1-3)Gal(b1-4)GlcNAc(b1-6)]Man(a1-6)[Gal(b1-4)GlcNAc(b1-3)Gal(b1-4)GlcNAc(b1-3)Gal(b1-4)GlcNAc(b1-2)Man(a1-3)]Man(b1-4)GlcNAc(b1-4)[Fuc(a1-6)]GlcNAc", "method_in_brief": "as §1"}, "[12]": {"target": "Gal(b1-4)GlcNAc(b1-3)Gal(b1-4)GlcNAc(b1-3)Gal(b1-4)GlcNAc(b1-3)Gal(b1-4)GlcNAc(b1-2)Man(a1-3)[Gal(b1-4)GlcNAc(b1-3)Gal(b1-4)GlcNAc(b1-3)Gal(b1-4)GlcNAc(b1-3)Gal(b1-4)GlcNAc(b1-2)Man(a1-6)]Man(b1-4)GlcNAc(b1-4)GlcNAc", "method_in_brief": "as §1"}, "[13]": {"target": "Gal(b1-4)GlcNAc(b1-3)Gal(b1-4)GlcNAc(b1-3)Gal(b1-4)GlcNAc(b1-3)Gal(b1-4)GlcNAc(b1-2)Man(a1-3)[Gal(b1-4)GlcNAc(b1-3)Gal(b1-4)GlcNAc(b1-3)Gal(b1-4)GlcNAc(b1-3)Gal(b1-4)GlcNAc(b1-2)Man(a1-6)]Man(b1-4)GlcNAc(b1-4)[Fuc(a1-6)]GlcNAc", "method_in_brief": "as §1"}, "[14]": {"target": "Gal(b1-4)GlcNAc(b1-3)Gal(b1-4)GlcNAc(b1-3)Gal(b1-4)GlcNAc(b1-3)Gal(b1-4)GlcNAc(b1-2)[Gal(b1-4)GlcNAc(b1-3)Gal(b1-4)GlcNAc(b1-3)Gal(b1-4)GlcNAc(b1-3)Gal(b1-4)GlcNAc(b1-6)]Man(a1-6)[Gal(b1-4)GlcNAc(b1-3)Gal(b1-4)GlcNAc(b1-3)Gal(b1-4)GlcNAc(b1-3)Gal(b1-4)GlcNAc(b1-2)Man(a1-3)]Man(b1-4)GlcNAc(b1-4)[Fuc(a1-6)]GlcNAc", "method_in_brief": "as §1"}, "[15]": {"target": "Gal(b1-4)GlcNAc(b1-3)Gal(b1-4)GlcNAc(b1-3)Gal(b1-4)GlcNAc(b1-3)Gal(b1-4)GlcNAc(b1-3)Gal(b1-4)GlcNAc(b1-2)Man(a1-3)[Gal(b1-4)GlcNAc(b1-3)Gal(b1-4)GlcNAc(b1-3)Gal(b1-4)GlcNAc(b1-3)Gal(b1-4)GlcNAc(b1-3)Gal(b1-4)GlcNAc(b1-2)Man(a1-6)]Man(b1-4)GlcNAc(b1-4)GlcNAc", "method_in_brief": "as §1"}, "[16]": {"target": "Gal(b1-4)GlcNAc(b1-3)Gal(b1-4)GlcNAc(b1-3)Gal(b1-4)GlcNAc(b1-3)Gal(b1-4)GlcNAc(b1-3)Gal(b1-4)GlcNAc(b1-2)Man(a1-3)[Gal(b1-4)GlcNAc(b1-3)Gal(b1-4)GlcNAc(b1-3)Gal(b1-4)GlcNAc(b1-3)Gal(b1-4)GlcNAc(b1-3)Gal(b1-4)GlcNAc(b1-2)Man(a1-6)]Man(b1-4)GlcNAc(b1-4)[Fuc(a1-6)]GlcNAc", "method_in_brief": "as §1"}, "[17]": {"target": "Gal(b1-4)GlcNAc(b1-3)Gal(b1-4)GlcNAc(b1-3)Gal(b1-4)GlcNAc(b1-3)Gal(b1-4)GlcNAc(b1-3)Gal(b1-4)GlcNAc(b1-2)[Gal(b1-4)GlcNAc(b1-3)Gal(b1-4)GlcNAc(b1-3)Gal(b1-4)GlcNAc(b1-3)Gal(b1-4)GlcNAc(b1-3)Gal(b1-4)GlcNAc(b1-6)]Man(a1-6)[Gal(b1-4)GlcNAc(b1-3)Gal(b1-4)GlcNAc(b1-3)Gal(b1-4)GlcNAc(b1-3)Gal(b1-4)GlcNAc(b1-3)Gal(b1-4)GlcNAc(b1-2)Man(a1-3)]Man(b1-4)GlcNAc(b1-4)[Fuc(a1-6)]GlcNAc", "method_in_brief": "as §1"}, "[18]": {"target": "Gal(b1-4)GlcNAc(b1-3)Gal(b1-4)GlcNAc(b1-3)Gal(b1-4)GlcNAc(b1-3)Gal(b1-4)GlcNAc(b1-3)Gal(b1-4)GlcNAc(b1-3)Gal(b1-4)GlcNAc(b1-2)Man(a1-3)[Gal(b1-4)GlcNAc(b1-3)Gal(b1-4)GlcNAc(b1-3)Gal(b1-4)GlcNAc(b1-3)Gal(b1-4)GlcNAc(b1-3)Gal(b1-4)GlcNAc(b1-3)Gal(b1-4)GlcNAc(b1-2)Man(a1-6)]Man(b1-4)GlcNAc(b1-4)GlcNAc", "method_in_brief": "as §1"}, "[19]": {"target": "Gal(b1-4)GlcNAc(b1-3)Gal(b1-4)GlcNAc(b1-3)GalNAc", "method_in_brief": "as §1"}},
  "note": "The other results are listed elsewhere or left out.",
  "data": [
    {"binder": "Gal 8 (Mus musculus), Q9JL15 (protein) MGGSHHHHHHGMASMLSLNNLQNIIYNPIIPYVGTITEQLKPGSLIVIRGHVPKDSERFQVDFQLGNSLKPRADVAFHFNPHFKRSSCIVCNTLTQEKWGWEEITYDMPFRKEKSFEIVFMVLKNKFQVAVNGRHVLLYAHRISPEQIDTVGIYGKVNIHSIGFRFSSASALPHTLGDLQSMETSALGLTQINRENIQKPGKLQLSLPFEARLNASMGPGRTVVIKGEVNTNARSFNVDLVAGKTRDIALHLNPHLNVKAFVRNSFLQDAWGEEERNITCFPFSSGMYFEMIIYCDVREFKVAINGVHSLEYKHRFKDLSSIDTLSVDGDIRLLDVRSW", "values": [
      {"measurement": "glycan array binding signal (z-score)", "setting": "[1]", "result": -0.241},
      {"measurement": "glycan array binding signal (z-score)", "setting": "[2]", "result": -0.231},
      {"measurement": "glycan array binding signal (z-score)", "setting": "[3]", "result": -0.311},
      {"measurement": "glycan array binding signal (z-score)", "setting": "[4]", "result": 0.454},
      {"measurement": "glycan array binding signal (z-score)", "setting": "[5]", "result": 1.24},
      {"measurement": "glycan array binding signal (z-score)", "setting": "[6]", "result": 0.82},
      {"measurement": "glycan array binding signal (z-score)", "setting": "[7]", "result": 0.073},
      {"measurement": "glycan array binding signal (z-score)", "setting": "[8]", "result": -0.271},
      {"measurement": "glycan array binding signal (z-score)", "setting": "[9]", "result": 1.01},
      {"measurement": "glycan array binding signal (z-score)", "setting": "[10]", "result": 0.135},
      {"measurement": "glycan array binding signal (z-score)", "setting": "[11]", "result": 1.5},
      {"measurement": "glycan array binding signal (z-score)", "setting": "[12]", "result": 1.75},
      {"measurement": "glycan array binding signal (z-score)", "setting": "[13]", "result": 1.24},
      {"measurement": "glycan array binding signal (z-score)", "setting": "[14]", "result": 3.38},
      {"measurement": "glycan array binding signal (z-score)", "setting": "[15]", "result": 4.12},
      {"measurement": "glycan array binding signal (z-score)", "setting": "[16]", "result": 4.16},
      {"measurement": "glycan array binding signal (z-score)", "setting": "[17]", "result": 6},
      {"measurement": "glycan array binding signal (z-score)", "setting": "[18]", "result": 7.05},
      {"measurement": "glycan array binding signal (z-score)", "setting": "[19]", "result": -0.078}
    ]}
  ]
}
